Results taken from PubChem BioAssay AID651820 (National Center for Advancing Translational Sciences (NCATS), 2012).
Among all 340,000 compounds or so, about 12,000 (3.5%) were called active. The shares of active, inactive and inconclusive entries below differ from those in the screen. The call rests on the fitted dose curve; in most records, active means well fitted inhibition curve with a large enough effect; inconclusive means small, poorly fitted or top-dose-only effect, or another doubt; inactive means no such curve, though single readings can be large or run the other way. Potencies of inconclusive entries are left out as doubtful fits.
On the % scale 0 is the no-effect control and ±100 the full control effect; potency means the concentration at half of the fitted maximal effect; tags describe the fitted curve by direction and shape.

Assay: qHTS Assay for Inhibitors of Hepatitis C Virus (HCV)
Conditions: Huh7.5.1 HCVcc-Cre (HCVcc is cell-culture hepatitis C virus) infection, luciferase reporter, 44 h; activity change, negative = inhibition: at 41.8 µM (top of the series) unless noted
Summary of the method: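 Infectious HCV cell culture screen: compound-treated cells (1,000/well, pre-plated 4 h) are infected with HCVcc-Cre at roughly 0.5 moi and grown 44 h. Infection is quantified by luciferase signal after 15 min substrate incubation at room temperature.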
With `COc1cccc(/C=C2\N=C(c3c(-c4ccccc4)noc3C)OC2=O)c1` the “activity change, negative = inhibition” value was inactive: 0.72%. For `CC(C)(C)OC(=O)NCCCCCc1cn(CC(=O)NCCCCCCCCCCC(=O)N2CCN(C(=O)OC(C)(C)C)CC2)nn1`, the Potency was inconclusive [inhibitor, full curve, poor fit]. With `Cn1c(C(C)(O)C(O)c2ccccc2)nc2ccccc21` (stereo unspecified) the “activity change, negative = inhibition” value was inactive: 9.94%. With `CCOC(=O)c1c(NC(=O)CN2CCCc3ccccc32)sc(C)c1C` the Potency was active: 3.16 µM. For `Cc1cccc(NC(=S)N/N=C/c2cccc([N+](=O)[O-])c2)c1`, the Potency was inconclusive [inhibitor, single point]. With `Cc1nnc(SCC(=O)N(C(C)C)C(C)C)[nH]c1=O` the “activity change, negative = inhibition” value was inactive: 6.1%. For `COc1cc(OC)c(OC)cc1/C=C1\CCC/C(=C\c2cc(OC)c(OC)cc2OC)C1=O`, the “activity change, negative = inhibition” value was inactive: -27.1%. For `Cc1sc2ncnc(N(C)Cc3ccco3)c2c1C`, the Potency was inconclusive [inhibitor, single point]. With `COc1ccc(NC(=O)CN2CCN(c3c(C)cc(C)cc3C)CC2)cc1` the Potency was inconclusive [inhibitor, single point]. With `COc1ccc(CC(=O)Nc2cccc(-c3cn4ccccc4n3)c2)cc1` the Potency was inconclusive [inhibitor, partial curve, poor fit]. For `CC1CCN(C(=O)CSc2nc3c(c(=O)n2C)SC(C)C3)CC1` (stereo unspecified), the “activity change, negative = inhibition” value was inactive: -21.2%. In the case of `O=C(Cc1coc2ccc3ccccc3c12)N1CCCC1`, the Potency is reported as inconclusive [inhibitor, single point]. In the case of `O=C(c1cc(COc2ccc(F)cc2Cl)on1)N1CCN(C2CCCCC2)C(=O)C1`, the Potency is reported as inconclusive [inhibitor, single point]. In the case of `C=C1CC2(CC(c3ccccc3)OC(c3ccccc3)C2)OC1=O` (stereo unspecified), the Potency is reported as inconclusive [inhibitor, single point]. For `Cc1cc(C)c(S(=O)(=O)Nc2ccc3c(c2)CCC3)c(C)c1`, the Potency was active: 11.2 µM. In the case of `O=C(CNC(=O)OCc1ccccc1)Nc1ccc(Br)cc1C(=O)c1ccccc1Cl`, the Potency is reported as active: 8.91 µM. In the case of `COc1ccc(C(=O)/C=C/c2ccc(OC3CSC3)cc2)cc1OC`, the Potency is reported as inconclusive [inhibitor, single point]. In the case of `COc1cc(C2Oc3ccccc3C=C2[N+](=O)[O-])cc(OC)c1OC` (stereo unspecified), the Potency is reported as inconclusive [inhibitor, single point]. In the case of `CCn1c(SCC(=O)N2c3ccccc3CCc3ccccc32)nnc1-c1ccc(OC)cc1`, the Potency is reported as inconclusive [inhibitor, full curve, poor fit]. With `CC1(NC(=O)CC(c2ccccc2)(c2ccccc2)c2ccccc2)CCN(Cc2ccc(-c3ccccc3)cc2)C1=O` (stereo unspecified) the Potency was inconclusive [inhibitor, single point]. In the case of `c1ccc(COc2ccc(OCCCN3CCCCC3)cc2)cc1`, the Potency is reported as inconclusive [inhibitor, single point]. In the case of `OCCN1CCN(C(=S)NCCc2ccccc2)CC1`, the Potency is reported as inconclusive [inhibitor, partial curve]. In the case of `O=C(Cn1cc(C(F)(F)F)cc(Cl)c1=O)Nc1ccc(N2CCOCC2)cc1`, the Potency is reported as inconclusive [inhibitor, full curve]. With `Cc1cc2ccccn2c1C(=O)c1cccc([N+](=O)[O-])c1` the “activity change, negative = inhibition” value was inactive: 1.71%. In the case of `Nc1ccc(-c2cc(N)n(-c3ccccc3)n2)cc1`, the “activity change, negative = inhibition” value is reported as inactive: 0.622%. With `Cc1ccc(CSCC(=O)N2CCN(c3ccccc3)CC2)cc1` the “activity change, negative = inhibition” value was inactive: -3%. In the case of `CCOC(=O)c1cccc(NC(=O)/C=C/c2cccc([N+](=O)[O-])c2)c1`, the Potency is reported as inconclusive [inhibitor, full curve]. With `COc1ccc(Nc2ncnc3sc(-c4ccccc4)cc23)c(OC)c1` the Potency was inconclusive [inhibitor, partial curve]. In the case of `c1ccc2c(CSc3nnc(-c4ccncc4)o3)cccc2c1`, the Potency is reported as inconclusive [inhibitor, single point]. In the case of `COC(=O)C1=C(C)N(C)C(=O)/C1=C\c1ccco1`, the Potency is reported as inconclusive [inhibitor, full curve, poor fit]. In the case of `COc1ccc2[nH]c3c(c2c1)CCNC3C` (stereo unspecified), the Potency is reported as inconclusive [inhibitor, single point]. In the case of `COc1ccccc1OCC(=O)Nc1cc(C)ccc1NC(=O)c1ccco1`, the “activity change, negative = inhibition” value is reported as inactive: 17.5%. For `CCOc1ccccc1N1CCN(Cc2cc3c(cc2[N+](=O)[O-])OCO3)CC1`, the Potency was inconclusive [inhibitor, single point]. With `COc1ccc(C)c2sc(N(CCN(C)C)C(=O)c3ccc4ccccc4c3)nc12` the Potency was inconclusive [inhibitor, full curve]. In the case of `COC(=O)C1Cc2c([nH]c3ccccc23)CN1` (stereo unspecified), the Potency is reported as inconclusive [inhibitor, single point]. In the case of `Cc1[nH]c2ccc(OC(F)(F)F)cc2c1CCNCc1ccc(Cl)cc1`, the Potency is reported as inconclusive [inhibitor, single point]. With `COc1ccc(C(=O)Nc2ccnn2C2CCN(Cc3cccnc3)CC2)cc1` the “activity change, negative = inhibition” value was inactive: 5.64%. For `CN1CCN(c2nc(-c3ccc(Cl)cc3Cl)nc3ccccc23)CC1`, the Potency was inconclusive [inhibitor, single point]. For `C=CCOc1ccc(/C=N/N2C(=O)C(CC(=O)Nc3ccc(F)cc3F)SC2=NC)cc1` (stereo unspecified), the “activity change, negative = inhibition” value was inactive: 8.89%. For `Cc1ccc(C2(c3ccccc3)NC(=O)N(CC(=O)NC3CCCCC3)C2=O)cc1C` (stereo unspecified), the Potency was inconclusive [inhibitor, partial curve]. In the case of `CC1Cc2ccccc2N1C(=O)COC(=O)c1cccc(Br)c1` (stereo unspecified), the “activity change, negative = inhibition” value is reported as inactive: -19.1%. In the case of `Cc1ccc2c(c1)/C(=C/c1ccccc1C)C(=O)N2`, the “activity change, negative = inhibition” value is reported as inactive: -23.8%. For `C/C(CC(=O)Nc1cc(C)ccn1)=N\NC(=O)c1cccc(F)c1`, the “activity change, negative = inhibition” value was inactive: 19.1%. For `O=C(NCCc1ccc2c(c1)OCCO2)c1cc2ccccc2o1`, the Potency was inconclusive [inhibitor, single point]. For `Cc1cc(S(=O)(=O)N(Cc2cccs2)Cc2ccccc2F)ccc1-n1cnnn1`, the Potency was inconclusive [inhibitor, single point]. For `CCOC(=O)c1ccc(N2C(=O)C(CC(N)=O)N(CCc3ccc(OC)c(OC)c3)C2=S)cc1` (stereo unspecified), the “activity change, negative = inhibition” value was inactive: 6.23%. With `O=C(Nc1ccc(O)cc1)c1ccc2c(c1)C(=O)N(Cc1cccnc1)C2=O` the Potency was inconclusive [inhibitor, single point]. With `Cc1cccc(-c2ccc(NC(=O)C3CCN(CC4CC4)CC3)cc2)c1` the Potency was active: 10 µM. In the case of `CCCC(=O)Nc1ccc(-c2csc(-c3cccnc3)n2)cc1`, the Potency is reported as inconclusive [inhibitor, single point]. In the case of `c1ccc2c(c1)OCCOCCOCCOCCOCCOc1ccccc1OCCOCCOCCO2`, the Potency is reported as inconclusive [inhibitor, partial curve]. With `O=C(c1cn(Cc2ccccc2)nc1-c1ccc(Cl)cc1)N1CCN(c2ccccn2)CC1` the Potency was inconclusive [inhibitor, partial curve]. With `CCN1C(=O)C(CC(=O)Nc2ccc(Br)cc2)N(CCCc2ccccc2)C1=S` (stereo unspecified) the Potency was inconclusive [inhibitor, single point]. For `COc1ccc(N(CC(=O)N/N=C/c2cccs2)S(=O)(=O)c2ccccc2)cc1`, the activity change, negative = inhibition was inconclusive: -50.2% [inhibitor]. With `COc1ccc(OC)c(NC(=O)C2CCCN(S(=O)(=O)c3cccc4nsnc34)C2)c1` (stereo unspecified) the Potency was inconclusive [inhibitor, single point]. With `CCCOc1ccc(Oc2nc(-c3ccncc3)nc3ccccc23)cc1` the Potency was inconclusive [inhibitor, single point]. In the case of `CCCC(=O)c1cc(F)c(N2CCOCC2)cc1C`, the “activity change, negative = inhibition” value is reported as inactive: 1.36%. In the case of `Cc1ccc(S(=O)(=O)c2nc(-c3ccccc3)oc2NCc2cccnc2)cc1`, the Potency is reported as active: 11.2 µM. For `CCCC(CCC(=O)Nc1ccn(-c2ccccc2)n1)C(=O)O` (stereo unspecified), the Potency was inconclusive [inhibitor, single point]. With `CC(OC(=O)c1snc(C(=O)NC2CCCCC2)c1N)C(=O)NC(C)(C)C` (stereo unspecified) the Potency was inconclusive [inhibitor, full curve]. With `NNC(=O)c1cnn(Cc2ccccc2)c1N` the Potency was inconclusive [inhibitor, single point]. For `Cc1ccc2oc(C(=O)NCCC3CCCCO3)c(C)c2c1` (stereo unspecified), the “activity change, negative = inhibition” value was inactive: -1.15%. For `Cc1cccc(NS(=O)(=O)c2ccc(C)c(C(=O)NCc3ccccn3)c2)c1`, the activity change, negative = inhibition was inconclusive: -31.7% [inhibitor]. In the case of `COc1ccc(NC(=O)Nc2cc(C)ccc2OC)cc1`, the Potency is reported as inconclusive [inhibitor, single point]. With `CCOC(=O)Nc1ccc(NCc2ccc(F)cc2)nc1N` the Potency was active: 0.891 µM. With `Cc1ccc2ncnc(Nc3ccc(C)c(C)c3)c2c1` the Potency was inconclusive [inhibitor, partial curve, poor fit]. With `Cc1cccc(NS(=O)(=O)c2ccc(C(=O)NCC(c3ccco3)N(C)C)cc2)c1C` (stereo unspecified) the “activity change, negative = inhibition” value was inactive: -11.2%. For `CCOc1ccc(S(=O)(=O)N2CN(c3cccc(C(C)=O)c3)c3nc4ccccc4nc32)cc1`, the Potency was inconclusive [inhibitor, single point]. For `COCCn1c(C)cc(C(=O)COC(=O)c2[nH]c(C)c(C(C)=O)c2C)c1C`, the Potency was inconclusive [inhibitor, full curve, poor fit]. In the case of `CCOC(=O)c1c(C)nc2c3ccccc3ccn12`, the Potency is reported as active: 7.08 µM. With `Nc1c(C(=O)NCCc2ccccc2)nnn1Cc1ccccc1` the Potency was inconclusive [inhibitor, single point]. With `Nc1ccc(N2CCN(Cc3ccccc3Cl)CC2)c(Cl)c1` the Potency was inconclusive [inhibitor, single point].
